The record followed here is PubChem BioAssay AID463173 (ICCB-Longwood Screening Facility, Harvard Medical School, 2010).

Hit rate of the full screen: of about 52,000 compounds, about 4,300 (8.3%) were called active. Cut-off read from the data, not from the text of the source: active = survival mostly below about 52% (no sharp cut-off); inactive = mostly above about 56%. The list shows a part of the results.

In the experiment the test system is DeltatarO mutant. Nature of the experiment: growth inhibition of S. aureus wild type versus tarO mutant, primary screen, teichoic acid synthesis inhibitors, RN4220, OD600 (AID 463173). To be noted: OD600, 18 h, stronger effect = lower value, screened at 18.75 µg/mL (by protocol).
Consider `Cc1scc(CN2CCN(c3ccccc3F)CC2)c1C`, for which the survival is inactive: 64%.

For the compound `CC(C)(C)C(=O)Nc1ccccc1C(=O)Nc1nccs1`, the survival is inactive: 86%. In the case of `CCc1ccc(CNC(=O)C2COc3ccc(OC)cc3C2)cc1` (stereo unspecified) it was inactive: 67%; in that of `CCOC(=O)c1c(C)sc(-c2c(-c3ccccc3)[nH]c3[nH]c(=O)[nH]c(=O)c23)c1O`, inactive: 100%; in that of `COc1ccc(-c2noc(-c3ccc(N4CCOCC4)c([N+](=O)[O-])c3)n2)cc1`, inactive: 46%. As to `CCC(=O)n1nc(-c2ccccc2)nc1N`, the survival is inactive: 104%. As for `CC1=C(C(=O)Nc2ccccc2C)C(c2cccs2)n2nc(SCc3ccccc3)nc2N1` (stereo unspecified), the survival is inactive: 70%. In the case of `CCc1ccc(S(=O)(=O)NCc2ccc3c(c2)CCN3C(=O)c2ccc(C)cc2)cc1`, the survival was inactive: 71%. In the case of `O=C(CSc1ccccn1)Nc1cccc(F)c1` it was inactive: 85%; in that of `Cc1ccc(CNC(=O)Nc2cc(C(=O)NCc3cccc(F)c3)ccc2N2CCCC2)cc1`, inactive: 120%; in that of `CC(=O)N1CCc2cc(Br)cc(S(=O)(=O)N3CCC(C(=O)Nc4cccc(C)c4C)CC3)c21`, active: 75%. In the case of `COC(=O)c1nnn(CC(=O)NC(=O)Nc2ccc(F)cc2)c1C(=O)OC` it was inactive: 89%.

With `O=C(Nc1ccc(S(=O)(=O)N2CCC(c3nc4ccccc4s3)CC2)cc1)c1ccccc1`, the survival is inactive: 104%. Turning to `CCCCn1c(CNC(=O)C23CC4CC(CC(C4)C2)C3)nnc1SCC(=O)Nc1ccc(C)cc1`, the survival is active: 36%.

For `COCCSc1nc2c([nH]c3ccccc32)c(=O)n1-c1ccc(OC)c(OC)c1`, the survival was inactive: 120%. In the case of `CC1CCCCN1Cc1c(O)ccc2c(=O)c(-c3ccccc3Cl)c(C(F)(F)F)oc12` (stereo unspecified) it was inactive: 55%. Consider `COc1ccc(Nc2c3c(nc4ccccc24)CCC3)cc1Cl`, for which the survival is inactive: 59%.

Consider `Cc1cccc(NC(=O)Cn2c(=O)n(Cc3ccc4c(c3)OCO4)c(=O)c3oc4ccccc4c32)c1C`, for which the survival is inactive: 89%. For `Fc1ccc(CNc2ccc(N3CCCC3)cc2)cc1`, the survival was inactive: 97%. In the case of `Cc1ccc(CN(C(=O)COc2ccccc2Cl)c2ccccn2)o1`, the survival is inactive: 59%. As to `Cc1ccc(CNS(=O)(=O)c2ccc(C(=O)N(C)C)s2)cc1`, the survival is active: -4%. The result for `CCOc1ccc(NC(=O)Cn2c(=O)n(Cc3ccc4c(c3)OCO4)c(=O)c3ccc(C(=O)NC4CCCCC4)cc32)cc1` reads inactive: 79%. In the case of `CC(C)(C)C1CCc2c(sc(NC(=O)C3c4ccccc4Oc4ccccc43)c2C(N)=O)C1` (stereo unspecified) it was inactive: 84%; in that of `CCn1cc(S(=O)(=O)c2cc(C)cc(C)c2)c(=O)c2cc(F)c(N3CCCCC3)cc21`, inactive: 86%; in that of `COc1ccc(OC)c(CNC(=O)Nc2cn(CC(C)C)c(=O)c3ccccc23)c1`, inactive: 69%.

`CCC(=O)N1c2ccc(S(=O)(=O)CCC(=O)NCc3ccccc3OC)cc2CC1C` (stereo unspecified): the survival is inactive: 90%. With `CCOc1ccc(CCNC(=O)c2cc(=O)[nH]c3ccc(S(=O)(=O)N4CCCCC4C)cc23)cc1OCC` (stereo unspecified), the survival was inactive: 83%. `Fc1ccccc1-c1nc(N2CCN(c3cccc(Cl)c3)CC2)c2ccccc2n1`: the survival is inactive: 57%. The result for `COCCNC(=O)Cn1ccc2cc(S(=O)(=O)N3CCCCCC3)ccc21` reads inactive: 73%; that for `CC(C)c1ccccc1C=NCC(=O)O`, inactive: 73%. In the case of `Cc1ccc(-c2noc(CCC(=O)N(C)c3ccccc3F)n2)cc1` it was active: 38%; in that of `CCC(Sc1nc(N)cc(=O)[nH]1)C(=O)NC(C)c1ccccc1` (stereo unspecified), inactive: 94%; in that of `Cc1ccc(NC(=O)CNCCCN2CCOCC2)cc1Br`, inactive: 85%. The result for `CCC(C(=O)OC)n1c(-c2ccccc2)nc2ccccc2c1=O` (stereo unspecified) reads inactive: 90%; that for `COc1ccccc1NC(=O)Cn1c(CN2CCCCC2)nc2ccccc2c1=O`, inactive: 88%. Take `CCc1ccc(-c2nnn(CC#N)n2)cc1`: the survival is inactive: 111%. In the case of `Cc1ccc(C2CC(=O)Nc3cc4c(cc32)OCCO4)cc1Br` (stereo unspecified) it was inactive: 65%; in that of `Cc1nc2cc(-c3cccc(F)c3)nn2c(C)c1CCC(=O)NCCc1ccccc1`, inactive: 97%; in that of `COc1ccc(N2CCN(S(=O)(=O)c3ccc4c(c3)C(C(C)C)C(=O)N4)CC2)cc1` (stereo unspecified), inactive: 125%. The result for `CCOC(=O)COc1ccc(-c2nnn(CC(=O)Nc3ccccc3)n2)cc1` reads inactive: 94%; that for `COC(=O)CSc1nnc(COc2cccc3ccccc23)o1`, active: 46%. The result for `N#Cc1cn(-c2ccccc2)nc1-c1cccnc1` reads inactive: 73%; that for `Cc1cc(OCC(=O)N(C)c2ccccc2)cc(C)c1Cl`, inactive: 104%; that for `Cc1ccc(C)c(N2CCN(C(=O)c3cc(C)nc4c3c(C)nn4-c3ccccc3)CC2)c1`, inactive: 126%. On to `COc1ccc(CCNC(=O)C2COc3ccccc3O2)cc1` (stereo unspecified), for which the survival is inactive: 89%. In the case of `COc1cc(NC(=O)CCN2CCN(CCO)CC2)cc(OC)c1` it was inactive: 159%; in that of `COc1cc(CN(C(=O)COc2ccc(F)cc2)c2ccccn2)cc(OC)c1OC`, inactive: 81%; in that of `CCOc1ccc(OCC(=O)Nc2ccc(S(=O)(=O)Nc3cc(C)on3)cc2)cc1`, inactive: 83%. For `O=C(NC1CCCC1)C(c1ccncc1)N(Cc1ccco1)C(=O)Cn1nnc(-c2ccc(Cl)cc2)n1` (stereo unspecified), the survival is inactive: 52%. Turning to `CCc1nn(CC(=O)NCCc2ccc(SC)cc2)c(=O)c2cc3sccc3n12`, the survival was inactive: 117%.

With `Cc1ccc(N2CC(C(=O)NC3CC3)CC2=O)cc1Cl` (stereo unspecified), the survival was inactive: 89%. The result for `CCc1cccc(NS(=O)(=O)c2ccc3c(c2)CC(C)N3C(=O)C2CC2)c1` (stereo unspecified) reads inactive: 86%; that for `CN1/C(=c2/sc(=C3C(=O)NC(=S)NC3=O)n(C)c2=O)Sc2ccccc21`, inactive: 87%. In the case of `CCc1c(C)c2ccc(O)c(CN3CCN(c4ccc(F)cc4)CC3)c2oc1=O` it was inactive: 55%. Consider `COc1ccccc1C(=O)NCc1nc2cccnc2n1Cc1ccc(F)cc1`, for which the survival is inactive: 76%. Regarding `COc1ccc(Cl)cc1NC(=O)CSc1nccn1-c1ccc(Cl)cc1`, the survival is inactive: 95%. The result for `CCOCN(C(=O)Cn1c(COC)nc2ccccc21)c1c(C)cccc1CC` reads inactive: 95%; that for `COc1ccccc1OCc1ccc(C(=O)NCc2ccncc2)o1`, inactive: 91%; that for `COc1ccc(S(=O)(=O)N2Cc3ccccc3CC2C(=O)Nc2cc(Cl)ccc2Cl)cc1` (stereo unspecified), inactive: 68%.

For the compound `CCN=C1S/C(=C\c2cn(CC(=O)NCc3ccco3)c3ccccc23)C(=O)N1CC`, the survival was inactive: 95%. In the case of `Cc1ccc(C)c(NC(=O)C2CCN(S(=O)(=O)c3c(C)noc3/C=C/c3cccs3)CC2)c1` it was inactive: 63%; in that of `Cn1c(/C(C#N)=C/c2ccccc2Br)nc2ccccc21`, inactive: 79%; in that of `CCn1c(CNC(=O)c2ccc(OC)cc2)nnc1SCC(=O)Nc1cc(C)ccc1C`, inactive: 112%. The result for `COc1ccc(CNC(=O)CCCn2nc(C)n3c(cc4sccc43)c2=O)cc1` reads inactive: 82%. The result for `COc1ccccc1/C=C/c1nc(C#N)c(NC2CCCCC2)o1` reads inactive: 85%. `COCCn1c(C)cc(O)c(C(c2ccccc2OC)N2CCN(c3ccccc3)CC2)c1=O` (stereo unspecified): the survival was inactive: 102%. The result for `COc1ccc(C(=O)NCCn2cc(SCc3ccc(C(F)(F)F)cc3)c3ccccc32)cc1OC` reads inactive: 72%; that for `N#CC(C#N)=Cc1cn(CCCOc2ccccc2Cl)c2ccccc12`, inactive: 76%; that for `Cc1cccc(NC(=O)CSC2=Nc3ccccc3C3=NC(CC(=O)NCc4cccs4)C(=O)N23)c1` (stereo unspecified), inactive: 87%. In the case of `Cc1ccc(N2CC(NC(=O)c3ccccc3C(F)(F)F)CC2=O)cc1C` (stereo unspecified) it was inactive: 55%. The result for `COc1ccc(Cl)cc1S(=O)(=O)Nc1ccc2[nH]c(=O)[nH]c2c1` reads inactive: 94%; that for `Clc1ccc2c(c1)-n1cc(-c3ccccc3)nc1CO2`, inactive: 71%. Turning to `CCc1ccc(S(=O)(=O)c2cn(Cc3ccccc3)c3cc(N4CCCC4)c(F)cc3c2=O)cc1`, the survival was inactive: 99%.

Consider `COc1ccc(NC(=O)CSc2oc(-c3cccs3)nc2S(=O)(=O)c2ccccc2)c(OC)c1`, for which the survival was inactive: 69%. In the case of `Cc1ccc(Cl)cc1N1CCN(C(=O)CCS(=O)(=O)c2cc(Br)cc3c2N(C(=O)C2CC2)CC3)CC1` it was inactive: 61%; in that of `O=C(Nc1ccc(C(=O)OCc2cc(=O)n3nc(C4CC4)sc3n2)cc1)c1ccccc1`, inactive: 83%. The result for `Cc1cccc(CNC(=O)c2cc3cc(S(=O)(=O)N4CCCCC4)ccc3n2C)c1` reads inactive: 87%; that for `Cc1ccc(CCNC(=O)Cn2c(-c3cccs3)cc3ccccc32)cc1`, inactive: 105%; that for `Cc1ccc(NC(=O)CN2C=NS(=O)(=O)c3ccccc32)cc1`, inactive: 76%.

For the compound `CCOC(=O)COc1ccc(CC)cc1C(=O)c1ccn2nc(-c3ccc(F)cc3)cc2n1`, the survival was inactive: 73%. For the compound `COc1ccc(-c2noc(CC(=O)N(C)c3cccc(C)c3)n2)cc1`, the survival is inactive: 68%.

Turning to `O=C(Cc1ccccc1)Nc1cccnc1`, the survival is inactive: 105%.

Turning to `COc1ccc(C(=O)c2cn(Cc3ccccc3F)c3cc4c(cc3c2=O)OCCO4)cc1OC`, the survival is inactive: 82%.

Regarding `O=C(Nc1ccc2c(c1)CCCN2C(=O)c1cccs1)c1ccc(F)c(F)c1`, the survival was inactive: 80%. In the case of `Cc1ccc(-c2c3c(=O)n(C)c(=O)n(C)c3c3n2-c2ccccc2NC3c2ccc(C)cc2O)cc1` (stereo unspecified) it was active: 2%. In the case of `COc1cccc(C(c2nnnn2CCC(C)C)N2CCN(Cc3ccccc3)CC2)c1OC` (stereo unspecified) it was inactive: 101%; in that of `CCOc1ccc(OCC)c(NC(=O)c2nnn(CC(=O)Nc3cc(Cl)ccc3OC)c2N)c1`, inactive: 71%.

For the compound `COc1ccc(-c2cc(C(=O)N3CCCCC3C)no2)cc1OC` (stereo unspecified), the survival is active: 58%. The result for `Cc1ccccc1NC(=O)C1CCN(S(=O)(=O)c2c(C)noc2/C=C/c2ccco2)CC1` reads inactive: 67%. In the case of `COc1ccc(C(=O)NCc2ccc3c(c2)CCN3C(C)=O)c(OC)c1` it was inactive: 115%; in that of `CCC(=O)N1CCc2cc(CNC(=O)c3cccc(N(C)C)c3)ccc21`, inactive: 84%.
